The text below walks through data of PubChem BioAssay AID485344 (National Center for Advancing Translational Sciences (NCATS), 2010).

Broadly, the inhibition is the relative decrease from the control value, in per cent.

About 6,900 (2%) of roughly 340,000 compounds were called active. Rule as the data show it: active = inhibition above about 30%; inactive = below that, where a call was filed. Only a part is listed here, and it is no random draw. Where no call is shown, the source filed none. Some compounds were tested as several samples or in several runs, with calls that do not always agree.

UniProt P14416, sequence (P14416 whole entry, looked up): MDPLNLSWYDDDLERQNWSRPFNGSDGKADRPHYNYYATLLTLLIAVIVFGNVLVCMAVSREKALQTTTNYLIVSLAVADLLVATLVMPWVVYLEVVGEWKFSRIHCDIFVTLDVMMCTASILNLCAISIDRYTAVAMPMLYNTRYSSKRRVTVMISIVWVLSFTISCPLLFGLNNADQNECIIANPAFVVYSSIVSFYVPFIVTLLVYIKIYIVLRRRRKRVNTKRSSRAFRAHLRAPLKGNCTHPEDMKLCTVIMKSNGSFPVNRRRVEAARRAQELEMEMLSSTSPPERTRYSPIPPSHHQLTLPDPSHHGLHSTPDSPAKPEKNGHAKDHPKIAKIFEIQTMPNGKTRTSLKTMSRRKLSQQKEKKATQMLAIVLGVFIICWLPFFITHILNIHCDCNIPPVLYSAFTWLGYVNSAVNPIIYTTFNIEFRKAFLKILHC

In this test the target is D(2) dopamine receptor (Homo sapiens) (UniProt P14416). Nature of the test: HTS Assay for Allosteric Antagonists of the Human D2 Dopamine Receptor: Primary Screen for Antagonists. Also: 0% is about no effect. The note with it: HEK293 TREx D2 cells, calcium flux, dopamine EC80; at 10 µM; stronger effect = higher value. Summed up:
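Tetracycline-induced HEK293 TREx cells expressing D2 receptor forced-coupled to calcium signalling, loaded with no-wash calcium dye. Compounds added and calcium flux read 180 s, then dopamine added at EC80 and read a further 180 s.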
In the case of `OC(COc1ccc2c(c1)OCO2)CN1CCN(c2ccc(F)cc2)CC1` (stereo unspecified), the inhibition is active: 75.8%.

Regarding `Cn1c(N)c(C(=O)CSc2nnnn2-c2ccccc2)c(=O)n(C)c1=O`, the inhibition was active: 38.6%.

Take `COc1ccccc1NC(=O)N(Cc1cccs1)Cc1cc2cc3c(cc2[nH]c1=O)OCO3`: the inhibition was active: 35.5%.

For the compound `CCN(CC)S(=O)(=O)c1ccc2c(c1)c(=O)c(C(=O)N1CCN(c3cccc(Cl)c3)CC1)cn2C`, the inhibition was found to be 14.6%.

For the compound `Cn1c(=O)oc2cc(S(=O)(=O)NC(Cc3ccccc3)C(=O)NCc3ccccc3Cl)ccc21` (stereo unspecified), the inhibition is -8.98%.

On to `COc1ccc(-c2n[nH]c3c2cnc2cc(OC)c(OC)cc23)cc1`, for which the inhibition is -14%.

On to `CCOc1ccccc1CNC(=O)C1CCN(c2nc3ccccc3nc2C(F)(F)F)CC1`, for which the inhibition was 0.263%.

For the compound `CN1C(C(=O)Nc2cccc(O)c2)=CC(c2ccco2)=NS1(=O)=O`, the inhibition is -9.16%.

Take `Cc1cccc(N2CCn3c2nc2c3c(=O)n(C/C=C/c3ccccc3)c(=O)n2C)c1`: the inhibition stood at 25.6%.

For `COc1ccc(-c2cc(C(=O)N3CCN(c4ccccc4)CC3)no2)cc1`, the inhibition is 1.25%.

`CC(C)c1ccc(NC(=O)N2c3ccccc3Sc3ccccc32)cc1`: the inhibition is -12.1%.

As for `C=Cc1ccc(Cn2c(=O)n(-c3cccc(Cl)c3)c(=O)c3c4c(sc32)CN(C(C)=O)CC4)cc1`, the inhibition was -4.92%.

`COCCCNC(=O)CCn1c(=O)c2ccccc2n(CC(=O)Nc2cc(Cl)ccc2OC)c1=O`: the inhibition came out at 4.58%.

As to `CCN(Cc1ccccc1)Cc1c(O)ccc2oc(C)c(C(=O)Nc3ccc(C)cc3C)c12`, the inhibition was 10.9%.

Consider `Cc1ccc(S(=O)(=O)N(CC(=O)NCCSc2ccc(Cl)cc2)c2ccccc2C)cc1`, for which the inhibition is -27.2%.

For `O=C(CCCCCn1c(=O)c2sccc2n(Cc2ccc(Cl)cc2)c1=O)NCc1ccc2c(c1)OCO2`, the inhibition was -0.955%.

Regarding `Cc1cc(Br)ccc1NC(=O)c1sc2nc3n(c(=O)c2c1C)CCCC3`, the inhibition was 7.41%.

On to `CC(C)CCNC(=O)Cn1c(-c2cccs2)cc2cc(F)ccc21`, for which the inhibition stood at 5.61%.

For the compound `COc1ccc(NC(=O)COC(=O)c2cc(OC)c(OC)cc2NC(=O)c2ccco2)cc1OC`, the inhibition is active: 57.5%.

On to `Cc1ccc(NC(=O)C2CCN(c3nnc(C)c4c(C)n(-c5ccccc5)nc34)CC2)c(Cl)c1`, for which the inhibition is -5.5%.

For the compound `COc1ccc(Cl)cc1C(=O)Nc1nnc2n1CCS2`, the inhibition was -28.3%.

As for `CCc1nnc(NC(=O)c2nc(SCc3ccccc3F)ncc2Cl)s1`, the inhibition was -26.1%.

On to `CCCCOc1ccc(Cn2c(=O)oc3ccc(C)cc32)cc1OC`, for which the inhibition was -6.5%.

As to `COc1ccc(S(=O)(=O)N2CCN(c3cccc(C)c3C)CC2)c2ccccc12`, the inhibition is -18.9%.

For `CCc1c(C)nc2nncn2c1NCc1ccccc1`, the inhibition came out at 10.6%.

`O=S1(=O)c2ccccc2N(Cc2ccc(Cl)cc2)c2ccccc21`: the inhibition is -3.7%.

Turning to `COc1ccc2c(c1)c(=O)c(C(=O)c1ccc(F)cc1)cn2CC(=O)Nc1ccc2c(c1)OCO2`, the inhibition was found to be 1.09%.

As for `CCOC(=O)CNC(=O)N1[C@H](c2cccs2)[C@@H](C)C(=O)[C@@H](C)[C@@H]1c1cccs1`, the inhibition stood at 2.45%.

Take `CCOc1ccc(N2CC(NC(=O)C3CCCCC3)CC2=O)cc1` (stereo unspecified): the inhibition was -12.9%.

Turning to `COc1cc(NC(=O)c2nc3nc(C)cc(C(F)F)n3n2)c(OC)cc1Cl`, the inhibition is -2.5%.

Regarding `Cc1ccc(CNC(=O)c2ccc(CN3CC(=O)N4CCCCC4C3=O)cc2)cc1` (stereo unspecified), the inhibition was -14.2%.

In the case of `Cc1cc(C)cc(NC(=O)Cn2cc(C(=O)c3cccs3)c3ccccc32)c1`, the inhibition came out at 7.38%.

As to `COc1ccc(Nc2c(-c3ccc(C)o3)nc3cc(C)ccn23)cc1`, the inhibition was 5.18%.

For `CC(=O)N1CCC(N(Cc2ccco2)C(=O)Nc2ccc(C)c(Cl)c2)CC1`, the inhibition was -4.08%.

As to `Cc1ccc2[nH]c3c(=O)n(CC(=O)N(CCN(C)C)Cc4ccccc4)ncc3c2c1`, the inhibition is -9.94%.

For the compound `O=C(O)c1cc(-c2ccccc2)nc2ccccc12`, the inhibition is active: 40.3%.

Turning to `CN1CCC(N(C)S(=O)(=O)c2ccc(F)cc2F)CC1`, the inhibition was active: 32.8%.

In the case of `O=C(COc1ccc(Cl)cc1Cl)Nc1cccc2cccnc12`, the inhibition is 8.61%.

On to `Cc1nnc(N2C(=O)c3oc4ccccc4c(=O)c3C2c2ccc(Cl)cc2)s1` (stereo unspecified), for which the inhibition was -3.85%.

Turning to `Cc1ccc2c(c1)C(=O)OC(C(=O)Nc1ncc(Cc3ccc(Cl)cc3)s1)C2` (stereo unspecified), the inhibition was -3.43%.

Take `Cc1c(C(=O)OC2CCCCCC2)[nH]c2c1C(=O)CC(c1ccc(Cl)cc1)C2` (stereo unspecified): the inhibition was found to be 10.4%.

For `Cc1cccc(C)c1-n1ncc(C(=O)NC2CCCC2)c1C1CCN(C(=O)OC(C)(C)C)CC1`, the inhibition is -2.33%.

As to `O=C(c1ccc2c(c1)CCN2S(=O)(=O)c1ccc(Cl)cc1)N1CCN(c2ccc(F)cc2)CC1`, the inhibition is -14.1%.

In the case of `CCOc1ccc(NC(=O)NCc2cccn2Cc2ccccc2)cc1`, the inhibition was -12.9%.

Regarding `Cc1cccc(OCC(=O)Nc2cccc3cccnc23)c1C`, the inhibition was -6.8%.

Consider `COc1ccc(N2CCN(C(=O)CCc3c(C)nc4cc(-c5ccc(OC)cc5OC)nn4c3C)CC2)cc1`, for which the inhibition was -18.6%.

On to `CC1Cc2cc(/C(O)=C3/C(=O)C(=O)N(CCCn4ccnc4)C3c3ccc(F)cc3)ccc2O1` (stereo unspecified), for which the inhibition is active: 44.2%.

As for `CCOC(=O)c1c(NC(=O)c2ccccc2OCC)sc2c1CCC(CC)C2` (stereo unspecified), the inhibition is -4.98%.

Turning to `CN(C)S(=O)(=O)c1ccc(C(=O)NCCSc2c(-c3ccc(Cl)cc3)[nH]c3ccccc23)cc1`, the inhibition is -3.93%.

Regarding `CCCOc1ccc(C2C(=O)N(C3CCCCCC3)CC(=O)N2CCC)cc1OC` (stereo unspecified), the inhibition came out at 17.6%.

With `COc1ccccc1N1CCN(C(=O)c2cnn(-c3ccc(F)cc3F)c2C2CCNCC2)CC1`, the inhibition stood at 6.25%.

Consider `Cc1ccc(Nc2nnc(-c3ccc(C)c(S(N)(=O)=O)c3)c3ccccc23)cc1`, for which the inhibition came out at 10.9%.

In the case of `COc1cccc(C(=O)Nc2ccc3oc(-c4cccc5c(Br)cccc45)nc3c2)c1`, the inhibition is 3.19%.

Consider `COc1ccc(S(=O)(=O)NCC(c2ccc(N(C)C)cc2)N2CCc3ccccc32)cc1OC` (stereo unspecified), for which the inhibition came out at 7.3%.

For `CCc1ccccc1N(C)C(=O)c1ccc2c(=O)n3c(nc2c1)CCCCC3`, the inhibition was -6.89%.

For the compound `CCOc1ccc(CC(=O)NCC(c2cccs2)S(=O)(=O)c2ccc(F)c(C)c2)cc1` (stereo unspecified), the inhibition is -1.28%.

On to `CCc1ccc(NC(=O)C(CC)n2c(=O)c(-c3ccccc3NC(C)=O)nc3ccccc32)cc1` (stereo unspecified), for which the inhibition is 28.2%.

On to `Cc1ccc(NC(=O)C2CC(=O)N(c3ccc(OC(C)C)cc3)C2)cc1` (stereo unspecified), for which the inhibition stood at 4.29%.

Regarding `CCOC(=O)c1c(C)c(-c2ccccc2)n(CC(=O)NC(CC)Cc2ccccc2)c1C` (stereo unspecified), the inhibition was -0.733%.

As to `CCN(CC)c1ccc(NC(=O)C2CCN(S(=O)(=O)c3cnc[nH]3)CC2)c(C)c1`, the inhibition was 21.4%.

For `O=C(CSc1nc(-c2ccc(F)cc2)[nH]c1-c1ccc(F)cc1)Nc1ccc2c(c1)OCCO2`, the inhibition was -9.41%.
